The whole screen tested about 190,000 compounds, of which about 270 (0.14%) were called active. Inconclusive results, whose numbers are uncertain, are shown with a selection of clear calls.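 The calls were made as follows: active = GTP binding activity at least 20% away from the 100% baseline, either lowered as inhibitor or raised as activator; inconclusive = flagged as likely green fluorescent, judged across all proteins in the well; inactive = the rest.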
target: GTPase HRas (Homo sapiens) (UniProt P01112); experiment: HRas wt fluorescent GTP binding changes, either direction – biochemical, wildtype, bead-based flow cytometry, multiplex, primary screen (AID 759); details: GST-Ras wt beads, Bodipy-FL-GTP binding, at 10 µM, actives lie on both sides;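 also: 0% = unlabeled GTP competition control and 100% = no-compound control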
Sequence of UniProt P01112 (P01112 whole entry, looked up): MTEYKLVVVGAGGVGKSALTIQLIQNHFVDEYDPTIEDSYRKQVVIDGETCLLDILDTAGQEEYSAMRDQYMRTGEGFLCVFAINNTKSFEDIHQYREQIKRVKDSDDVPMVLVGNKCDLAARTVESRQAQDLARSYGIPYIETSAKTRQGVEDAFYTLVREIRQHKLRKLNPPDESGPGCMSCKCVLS

GTP binding activity, active:
COc1ccc(C(=O)N/C(=C\c2cccc([N+](=O)[O-])c2)C(=O)Nc2cccc(C(=O)O)c2)cc1 69%
N#C/C(=C/c1ccc(-c2cc(C(=O)O)cc(C(=O)O)c2)o1)c1nc2ccccc2s1 75%
CCc1nnc(NS(=O)(=O)c2ccc(Nc3ccc4nonc4c3[N+](=O)[O-])cc2)s1 77%
Nc1c(S(=O)(=O)c2ccccc2)c2nc3ccccc3nc2n1/N=C/c1cccc(O)c1 73%
Cc1noc(C)c1COc1cccc(C(=O)NCc2ccccc2Cl)c1 52%
O=c1c2ccccc2nc2c3ccccc3c(NCCO)nn12 62%
CCC(/C=C1\Sc2ccc(OC)cc2N1CCO)=C\c1sc2ccc(OC)cc2[n+]1CCO 78%

GTP binding activity, inconclusive:
CC(=O)c1sc(NC(=O)c2ccc(C)c(C)c2)nc1C 92%
Oc1ccc(Br)cc1C=Nc1ccc(Cl)cc1 92%
Cc1ccc(S(=O)(=O)Nc2ccc(Br)cc2C(NCC(=O)O)c2ccccc2)cc1 (stereo not drawn) 93%
O=C(/C=C/c1ccco1)NCC(=O)N/N=C/c1ccc(Cl)cc1 91%
O=C(Nc1nc(-c2ccc(S(=O)(=O)N3CCCC3)cc2)cs1)c1ccco1 73%
Cc1cc(OC(=O)c2ccccc2)n(CCC#N)n1 106%
Cc1cc(C(F)(F)F)nc(SCC(=O)NC2=NC(=O)C(C)S2)n1 (stereo not drawn) 104%
COCCNC(=S)NCCCNc1nc2cc3c(cc2cc1C#N)OCO3 93%
O=C(O)c1ccc(Cn2c(SCc3cc(=O)n4cc(Br)ccc4n3)nc3ccsc3c2=O)cc1 92%
Cc1cccc(NC(=S)NNC(=O)c2ccc3c(c2)OCO3)c1 98%
Oc1ccccc1N=Nc1ccccc1O 95%
COCCn1c(C)cc(C(=O)COC(=O)/C=C/c2cccc(OC)c2)c1C 89%
COc1ccc2c(c1)nc(SCC(C)O)n2C (stereo not drawn) 103%
CCC(CC)COC(=O)C(C#N)c1nc2ccccc2nc1N1CCOCC1 (stereo not drawn) 104%
CC(C)(C)C(=O)NC(=S)NCc1ccccc1 101%
Cc1ccc(Cn2cc(/C=C/C(=O)O)c(-c3ccccc3)n2)cc1 104%
COc1ccc(OC)c(/C=N/NC(=O)c2cc[n+](CC(=O)c3ccccc3)cc2)c1 108%
COC(=O)c1c(NC(=O)c2ccoc2C)sc2c1CCC2 97%
CCOC(=O)c1cnc2cc3c(cn2c1=O)CCCC3 107%
O=C(Nc1cccnc1)c1ccc(CN2CCc3ccccc3C2)cc1 104%
OCCNCCOc1ccc(Cl)c(Cl)c1 102%
O=C(Cn1cnc2cc([N+](=O)[O-])ccc2c1=O)NCCc1ccc(F)cc1 85%
Cc1ccc(C2=NN(S(=O)(=O)c3ccccc3)C(c3ccccc3O)C2)cc1 (stereo not drawn) 119%
Fc1ccc(-c2csc3ncnc(Cl)c23)cc1 98%
O=[N+]([O-])c1ccccc1Oc1ncccc1[N+](=O)[O-] 92%
CCn1c2ccccc2c2cc(/C=N/O)ccc21 95%
Cc1nn(-c2ccc(F)cc2)c(Cl)c1/C=C(\CC(=O)O)c1nc2ccccc2s1 84%
Cn1cccc1/C=C1\SC(=S)N(NC(=O)c2ccccc2)C1=O 92%
COc1ccc(C(=O)Nc2ccc(S(=O)(=O)N3CCCCC3)cc2)cc1OC 95%
Cc1ccc(NC(=O)c2cc(-c3ccccc3)nn2-c2ccccc2)cc1 97%
N#Cc1ccc(-c2ccc(F)cc2)nc1Sc1ccc(F)cc1 106%
Cn1c(C(=O)N2CCN(Cc3ccc4c(c3)OCO4)CC2)cc2c(=O)n(C)c3ccccc3c21 89%
COc1ccc(OCC(=O)Nc2cccc(NC(=O)COc3ccc(OC)cc3)n2)cc1 96%
Cc1cc(N=CC2=C(O)CC(C)(C)CC2=O)no1 89%
O=C(NCCCN1CCOCC1)c1cc(C(=O)C2CCCCC2)c[nH]1 95%
COc1cc2cc(C)c3nnc(SCC(=O)Nc4cc(C)on4)n3c2cc1OC 86%
COc1ccc(/C=C(\C#N)C(=O)NCC2CCCO2)cc1OC (stereo not drawn) 107%
COc1cc(C(=O)Nc2nnc(CC(C)C)s2)c([N+](=O)[O-])cc1OC 104%
CCOC(=O)c1c(NC(=O)N/N=C/c2ccccc2OCC)sc(C(C)=O)c1C 122%
CC(C)NS(=O)(=O)c1ccc(OCC(=O)N2CCCC2)c(Cl)c1 101%
O=C(CC1C(=O)NCCN1Cc1ccc(-c2ccccc2)cc1)NCCCn1cccn1 (stereo not drawn) 91%
O=C(c1ccccc1NS(=O)(=O)c1ccc(F)cc1)N1CCc2ccccc21 97%
CCOC(=O)C1CCCN(C(=O)CCn2nc(-c3ccccc3)ccc2=O)C1 (stereo not drawn) 104%
COc1ccc2[nH]c(=O)c(CN(Cc3ccc4c(c3)OCO4)C(C)=O)cc2c1 91%
O=C(O)c1ccc2c(=O)[nH]c(CN3CCOCC3)nc2c1 104%
Cn1c(=O)cc(N2CCOCC2)[nH]c1=O 295%
Cc1ccc(-c2nnc(-c3ccc(NC(=O)c4cccs4)cc3)o2)cc1 102%
CCOC(=O)NN1C(=O)c2ccccc2NC1c1ccccc1 (stereo not drawn) 101%
COc1ccc(CCNC(=O)c2c(O)c3c([nH]c2=O)CCCC3)cc1 95%
C=CCn1c(SCc2ccc(C(=O)Nc3ccccc3)cc2)nnc1-c1ccccc1 108%
CN(C)Cc1c(O)ccc2[nH]cnc12 104%
O=C1CSc2ccc(C(=O)NCCC3=CCCCC3)cc2N1 97%
Cc1ccccc1CN1CCN(C(=O)c2cccc(F)c2)CC1 104%
C=CCn1c(N)c(C(=O)OCC)sc1=S 106%
CSc1nc2c(c(=O)[nH]1)C(c1ccncc1)C(C(=O)OC(C)C)=C(C)N2 (stereo not drawn) 105%
O=C(CN1C(=O)C2C3C=CC(C3)C2C1=O)NCCc1ccccc1Cl (stereo not drawn) 109%
C/C(=N\NC(=O)c1ccc(Cl)cc1)c1cccc(NC(=O)C(C)C)c1 103%
O=C(CSCc1ccccc1)N=Nc1c(O)[nH]c2ccccc12 97%
CCOC(=O)c1ccc(S(=O)(=O)NC2CCCCCCC2)n1C 93%
Cc1cc(C)n2c(SCc3nnc(-c4cccs4)o3)nnc2n1 94%

GTP binding activity, inactive:
Cc1ccc(OCC(=O)N2CCN(C(=O)c3ccncc3)CC2)cc1 97%
CCOC(=O)Cc1csc(NC(=O)/C=C/c2cccc(Br)c2)n1 92%
CN(C)C(=O)CSc1n[nH]c(-c2ccco2)n1 94%
Cc1ccsc1/C=C(\C(=O)c1ccc(OC(C)C)cc1)c1nc2ccccc2o1 103%
C/C(=N/NC(=O)c1cnccn1)c1cccs1 101%
Cc1ccnn1CCC(=O)N1CCCC(CCC(=O)N2CCN(c3ccccn3)CC2)C1 (stereo not drawn) 95%
COc1ccccc1NC(=S)N(Cc1ccco1)Cc1cc2cc(C)ccc2[nH]c1=O 97%
O=C(O)c1cccc(Oc2ccc([N+](=O)[O-])cc2)c1 117%
CN=C(Nc1cccc(OC)c1)SC1CC(=O)N(c2ccc(C(=O)O)cc2)C1=O (stereo not drawn) 100%
CC(NC(=O)COC(=O)c1cc(NS(=O)(=O)c2ccc(Cl)c([N+](=O)[O-])c2)ccc1O)C1CC2CCC1C2 (stereo not drawn) 102%
COc1cccc(NC(=O)N2CCN(c3nnnn3-c3ccccc3)CC2)c1 100%
COc1cc([C@H]2[C@@H]3CCCC[C@]3(O)CCN2CC(=O)Nc2ccc(C)cc2)ccc1O 98%
S=C(Nc1ccc(Oc2ccc(NC(=S)NC3CCCCC3)cc2)cc1)NC1CCCCC1 101%
O=C(CSc1ccc2ccccc2c1)Nc1ncccn1 101%
CC(C)CC(=O)O/N=C1\C(=O)N(Cc2ccc(Cl)cc2)c2ccc([N+](=O)[O-])cc21 98%
O=C(Cc1cccs1)Nc1cccc(C(=O)Nc2ccc(C(=O)O)cc2)c1 99%
CC(C)COc1cccc(C(=O)NC(=S)Nc2cccc(NC(=O)c3ccccc3Cl)c2)c1 98%
CC(NCc1ccc(N(C)C)cc1)C1CC2CCC1C2 (stereo not drawn) 101%
CCCC1CC(C)(C(=O)CSc2n[nH]c(-c3ccccc3)n2)OC1=O (stereo not drawn) 104%
Cc1cccc(NS(=O)(=O)c2cc(C(=O)N3CCOCC3)ccc2Cl)c1 97%
CCN(CC)CCNC(=O)c1ccc(Sc2ccc(C)cc2)c(NC(C)=O)c1 100%
CC1(C)CC(=O)C/C(=N\NC(=O)C2CC23CCC3)C1 (stereo not drawn) 97%
CC(=O)N=c1n(C)c2ccccc2n1CCOc1ccccc1 103%
C=CCSc1nc(N)c(C#N)c(-c2ccc(C)cc2)c1C#N 85%
CCOc1cnn(Cc2ccccc2)c(=O)c1SCc1ccccc1 103%
CCCCCN1C(=O)Cn2c(nc3ccccc3c2=O)C1C (stereo not drawn) 95%

Source: PubChem BioAssay AID759 (NMMLSC, 2007)
